Reference: PubChem BioAssay AID1159614 (National Center for Advancing Translational Sciences (NCATS), 2016)
Screen size: about 45,000 compounds; about 65 (0.1%) were called active. Calls come from the whole dose curve; as a rule, active = well fitted activation curve with a large enough effect; inconclusive = small, poorly fitted or top-dose-only effect; inactive = no such curve, though single readings can be large or run the other way. This is one part of the list.

Biological target: Galactocerebrosidase (Homo sapiens) (UniProt P54803)
Sequence of UniProt P54803 (P54803 whole entry, looked up): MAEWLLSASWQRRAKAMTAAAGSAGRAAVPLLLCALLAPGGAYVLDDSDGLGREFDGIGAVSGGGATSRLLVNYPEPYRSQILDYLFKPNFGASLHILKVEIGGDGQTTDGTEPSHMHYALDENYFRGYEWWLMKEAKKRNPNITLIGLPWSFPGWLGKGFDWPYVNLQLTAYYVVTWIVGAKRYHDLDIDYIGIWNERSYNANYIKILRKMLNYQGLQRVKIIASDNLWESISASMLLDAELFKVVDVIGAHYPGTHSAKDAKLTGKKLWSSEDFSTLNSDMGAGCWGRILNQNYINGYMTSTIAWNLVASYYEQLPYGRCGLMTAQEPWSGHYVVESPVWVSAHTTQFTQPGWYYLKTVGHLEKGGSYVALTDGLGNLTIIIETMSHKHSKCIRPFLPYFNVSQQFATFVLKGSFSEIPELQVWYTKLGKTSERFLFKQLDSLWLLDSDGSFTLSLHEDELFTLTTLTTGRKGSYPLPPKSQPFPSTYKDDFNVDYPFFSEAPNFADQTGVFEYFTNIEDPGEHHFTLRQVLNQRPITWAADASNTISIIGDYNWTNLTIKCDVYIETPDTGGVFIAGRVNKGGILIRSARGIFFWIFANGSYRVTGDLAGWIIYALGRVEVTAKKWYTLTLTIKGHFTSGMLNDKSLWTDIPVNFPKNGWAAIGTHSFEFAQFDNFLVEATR
Test: A Novel Cell-Based Assay to Identify Small Molecules for B -Galactocerebrosidase; note: 0% is about no effect; nearly all actives have a fitted effect of over 65% in size
Conditions: 145M-Twi-hGALC-G270D cells (Twitcher mouse brain line with human GALC G270D), HMU-beta-Gal fluorescence, 48 h; series mostly up to 57.5 µM; activation: at the top concentration
How it was run: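 Fluorogenic HMU-b-Gal hydrolysis (0.1 mM final, pH 5.2 citrate-phosphate with 1 mg/mL sodium taurocholate; carbonate stop buffer) measures mutant GALC activity after compound treatment of live 145M-Twi Twitcher brain cells stably carrying human GALC-G270D, with wild-type GALC line alongside; activation sought.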

activation, inactive:
Cc1cc2nc(-c3cccc(NC(=O)C(C)C)c3C)oc2cc1C -16.9%
COc1cc(OC)c(OC)cc1/C=C/c1nc2cc3ccccc3cc2c(=O)n1-c1ccc(F)c(Cl)c1 -16.4%
CCc1c(C)nc(SCc2nc(-c3ccccc3)no2)[nH]c1=O -2.94%
O=C(c1cc(-c2ccccc2O)on1)N1CCCCC1 -7.36%
CCN[C@H]1C[C@H](C)S(=O)(=O)c2sc(S(N)(=O)=O)cc21 -4.5%
O=C(c1ccc2c(c1)N(Cc1ccccc1F)C(=O)c1ccccc1S2(=O)=O)N1CCN(c2ccccc2F)CC1 -15.4%
COc1cc(S(N)(=O)=O)cc(C(=O)O)c1OC -8.85%
CCN(CC)C(=O)c1sc2c(c1C)c(=O)n(CCc1ccccc1)c(=O)n2Cc1ccc(F)cc1Cl -11.8%
CCOc1ccc(C(=O)Nc2ccc3nn(-c4ccc(OC)c(Cl)c4)nc3c2)cc1 -3.56%
CNC(=O)C1CCC(Cn2c(=O)c3sccc3n(CC(=O)NCc3ccc(OC)cc3)c2=O)CC1 (configuration not stated) -32.3%
COc1ccccc1NC(=O)c1c(NC(=O)COc2ccccc2)sc2c1CCCCC2 -16%
Cc1ccc(OCC(=O)Nc2cccc(-c3nc4ccccc4o3)c2C)cc1C -15.6%
O=C(Cn1c(=O)n(-c2cccc(Cl)c2)c(=O)c2sc3ccccc3c21)NC1CCCCC1 -18.4%
COc1ccc2cc(-c3nc(Cl)c4c5c(sc4n3)CC(C)CC5)c(=O)oc2c1 (configuration not stated) 4.63%
Clc1ccc(CN2CCC(CNc3ncnc4onc(-c5ccc(Cl)cc5)c34)CC2)cc1 -1.73%
O=C(CSCc1ccc(F)cc1)N1CCN(c2ccc(Cl)cc2)CC1 -2.91%
CC(=O)SC[C@@H](Cc1ccccc1)C(=O)NCC(=O)OCc1ccccc1 -10.7%
Cc1cccc(NC(=O)CSc2nc3ccccc3nc2N2CCCCC2)c1C 15.2%
COc1cc(NC(=O)C(Cc2ccccc2)NS(=O)(=O)c2cccc3nsnc23)cc(OC)c1 (configuration not stated) -0.915%
CCOc1ccc(N(CC(=O)Nc2ccccc2CC)S(=O)(=O)c2c(C)noc2C)cc1 -12.7%
COc1ccc(NC(=O)c2c(NC(=O)c3ccncc3)sc3c2CCC(C(C)(C)C)C3)cc1 (configuration not stated) -8.8%
COc1ccc(C(=O)NNc2ncnc3c2cnn3-c2ccc(C)c(Cl)c2)cc1 -4.8%
COc1cccc(Cn2c(=O)n(CCc3ccccc3)c(=O)c3c2c2cc(OC)ccc2n3C)c1 -6.5%
Cc1ccc(Cl)cc1NC(=O)C1CCN(S(=O)(=O)c2cccc3nonc23)CC1 -14.1%
Cc1cc(C)cc(NC(=O)c2cc(S(=O)(=O)N3CCC(C)CC3)cn2C)c1 -8.98%
CC(=O)c1cccc(NC(=O)CCc2c(C)nc3c(c(C)nn3-c3ccccc3)c2C)c1 -14.7%
CCCCNc1nc(Oc2ccc(=O)n(C)n2)nc(N2CCOCC2)n1 -8.69%
COc1ccc(Br)cc1CNC(=O)c1ccc2c(c1)nc1n2CCC(C)C1 (configuration not stated) -15.3%
O=C(Cn1ccn(-c2ccc(F)c(F)c2)c(=O)c1=O)NCCc1ccccc1 -6.47%
CCOc1ccc(-c2cc3c(=O)n(CC(=O)Nc4cc(F)ccc4C)ccn3n2)cc1 -23.1%
O=C(CCC1N=C2c3ccccc3N=C(SCc3cccc(Cl)c3)N2C1=O)N1CCN(c2ccccc2)CC1 (configuration not stated) -17%
Cc1cc(C)c2c(=O)cc(C(=O)Nc3c(C)n(C)n(-c4ccccc4)c3=O)oc2c1 -27.5%
COc1ccc(C(=O)c2c(N)c(-c3nc(-c4ccc(OC)cc4)cs3)c3ccccn23)cc1 -15.9%
Cc1cc(C)c(/C=C/c2onc(C)c2S(=O)(=O)N2CCC(C(=O)NCc3ccccc3Cl)CC2)c(C)c1 -4.9%
COc1cc2[nH]c(=O)n(CCC(=O)N3CCN(c4ccc(Cl)cc4)CC3)c(=O)c2cc1OC -9.32%
CCn1nc(-c2ccccc2)c(-c2ccccc2)c(C(=O)Nc2ccccc2C#N)c1=O -6.66%
C=CCc1ccccc1OCc1nc2ccccc2n1CC -8%
CC(=O)N(O)CCCCCNC(=O)CCC(=O)N(O)CCCCCNC(=O)CCC(=O)N(O)CCCCCN -3.89%
Cc1ccc2oc3c(c(=O)c2c1)C(c1ccc([N+](=O)[O-])cc1)N(CCCN1CCOCC1)C3=O (configuration not stated) -7.47%
CCN(Cc1ccccc1)C(=O)Cn1c(=O)n(-c2cccc(C)c2)c(=O)c2c1c1cc(C)ccc1n2C -7.02%
COc1ccc(S(=O)(=O)c2c(O)c3ccc(C(=O)NCc4ccc(Cl)cc4)cc3[nH]c2=O)cc1 -22.8%
CCOC(=O)C1CCN(C(=O)Cn2ncc3c4ccccc4n(Cc4ccc(F)cc4)c3c2=O)CC1 -10%
Cc1csc2nc(COc3ccc(NC(=O)COc4ccccc4)cc3)cc(=O)n12 17.1%
Cc1cc(NC(=O)CSc2ncc(C(=O)Nc3ccc(Cl)cc3)c(=O)n2C)no1 -23%
O=C(CN1C(=O)c2cccnc2Oc2ccc(Cl)cc21)NCCc1ccccc1 2.45%
O=C(O)Cc1cccc(-c2cc(CCCCCCc3ccc(O[C@H]4O[C@H](CO)[C@@H](O)[C@H](O)[C@@H]4O)c(-c4cccc(CC(=O)O)c4)c3)ccc2O[C@H]2O[C@H](CO)[C@@H](O)[C@H](O)[C@@H]2O)c1 -7.36% [at 0.46 µM]
CC(C)(C)C(=O)Cn1c(=O)n(-c2ccccc2)c(=O)c2c3c(sc21)CCC3 -10.6%
Cc1ccc(NC(=O)CN2C(=O)COc3ccc(S(=O)(=O)NC4CCCC4)cc32)cc1Cl -43.9%
CCOc1ccc(C(=O)Nc2cccc(NC(=O)c3ccc(C(C)(C)C)cc3)c2)cc1Br -13%
Cn1c2ccccc2c2cnn(CC(=O)N3CCN(c4cccc(C(F)(F)F)c4)CC3)c(=O)c21 -10.5%
Cc1cccc(N2CCN(S(=O)(=O)c3cc(Cl)ccc3Cl)CC2)c1C -16.8%
CC(=O)c1cccc(NC(=O)C2CCCN(C(=O)c3cnn(-c4ccccc4)c3-n3cccc3)C2)c1 (configuration not stated) -7.53%
Cc1ccc(CNC(=O)CN(c2cccc(C)c2C)S(=O)(=O)c2ccccc2)cc1 -34.4%
CCC(CC)C(=O)Nc1ccc2nc(SCC(=O)N3CCc4ccccc43)sc2c1 -0.783%
CCCCNc1ccc(-c2nc(-c3ccco3)no2)cc1[N+](=O)[O-] -5.37%
COc1ccc(-c2nc(SCC(=O)Nc3ccc4c(c3)OCCO4)c(-c3ccc(F)cc3)[nH]2)cc1OC -10.2%
COc1ccc(CC(=O)NCc2ccc3c(c2)CCN3C(C)=O)cc1 -13.3%
